The source of these data is article PMC4336329 (PLoS ONE, 2015).

The structures appear in SMILES notation. Hit rate of the full screen: of about 310,000 compounds, about 2,200 (0.71%) showed an effect of 50% or more. Effects have a minus sign here. Some of the results follow.

The assay deals with human ether-à-go-go-related gene (hERG) potassium channel (human, UniProt Q12809). Put plainly: primary screen, population patch clamp on CHO cells stably expressing hERG.
Sequence of human ether-à-go-go-related gene (hERG) potassium channel (Q12809 whole entry, looked up): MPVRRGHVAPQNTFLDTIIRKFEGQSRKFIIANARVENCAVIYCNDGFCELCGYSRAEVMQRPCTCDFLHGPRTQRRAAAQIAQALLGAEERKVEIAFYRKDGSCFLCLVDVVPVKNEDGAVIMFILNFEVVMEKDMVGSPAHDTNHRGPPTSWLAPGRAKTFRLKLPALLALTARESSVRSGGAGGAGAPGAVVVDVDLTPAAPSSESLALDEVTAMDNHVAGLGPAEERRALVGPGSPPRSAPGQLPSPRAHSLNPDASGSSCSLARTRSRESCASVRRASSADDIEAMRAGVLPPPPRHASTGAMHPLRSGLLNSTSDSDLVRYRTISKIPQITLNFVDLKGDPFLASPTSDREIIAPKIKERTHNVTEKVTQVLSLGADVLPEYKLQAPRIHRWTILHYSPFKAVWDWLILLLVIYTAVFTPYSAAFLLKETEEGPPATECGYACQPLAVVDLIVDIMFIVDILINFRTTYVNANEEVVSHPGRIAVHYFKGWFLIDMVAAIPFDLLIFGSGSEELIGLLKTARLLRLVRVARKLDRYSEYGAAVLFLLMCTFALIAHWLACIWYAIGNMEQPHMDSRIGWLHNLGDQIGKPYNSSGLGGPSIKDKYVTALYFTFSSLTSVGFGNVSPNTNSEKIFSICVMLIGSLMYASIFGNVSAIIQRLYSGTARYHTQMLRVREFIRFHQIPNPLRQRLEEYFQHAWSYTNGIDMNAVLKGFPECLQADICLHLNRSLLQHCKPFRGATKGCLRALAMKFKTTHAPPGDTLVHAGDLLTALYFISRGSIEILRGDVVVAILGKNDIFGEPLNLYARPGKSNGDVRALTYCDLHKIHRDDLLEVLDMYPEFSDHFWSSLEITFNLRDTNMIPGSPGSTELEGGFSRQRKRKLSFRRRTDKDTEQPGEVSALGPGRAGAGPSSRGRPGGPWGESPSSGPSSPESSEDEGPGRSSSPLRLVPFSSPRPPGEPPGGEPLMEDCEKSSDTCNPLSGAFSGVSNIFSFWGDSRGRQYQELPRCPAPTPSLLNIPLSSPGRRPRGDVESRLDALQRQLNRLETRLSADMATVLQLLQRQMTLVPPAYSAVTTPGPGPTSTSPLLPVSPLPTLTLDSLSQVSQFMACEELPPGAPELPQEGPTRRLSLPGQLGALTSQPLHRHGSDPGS
In the case of `CCOC(=O)c1sc(-c2ccccc2)cc1N`, the “hERG current change (%, negative = inhibition) at 1uM” value is on record as 12.3%.
Next, `Cc1nc2ccccc2c(=O)n1-c1ccccc1[N+](=O)[O-]`: 5.38%; `CCOC(=O)c1cccc(NC(=O)CN2CCN(c3ccc(OC)cc3)CC2)c1`: -8.34%; `CCCC1=[N+](CC(=O)c2ccccc2)CCn2c(C)ccc21.[Br-]`: 14%.
Next, `Cc1ccc(C)c(N2C(=O)CC(N3CCN(Cc4ccc5c(c4)OCO5)CC3)C2=O)c1` (stereo not drawn): -6.05%.
Next, `COCCOC(=O)c1[nH]c2c(c1C)C(=O)CC(c1cc(OC)c(OC)c(OC)c1)C2` (stereo not drawn): 14.1%.
Consider `COC(=O)C(O)(NC(=O)OCc1ccccc1)C(F)(F)F` (stereo not drawn), for which the “hERG current change (%, negative = inhibition) at 1uM” value is recorded as 4.17%.
Next, `CNS(=O)(=O)c1ccc(NC(=S)Nc2ccc3c(c2)OCO3)cc1`: 12%.
For `CCCN(CCC)C(=O)CSc1nc2ccsc2c(=O)n1NC(=O)c1ccccc1` the value was 0.568%.
In the case of `CCCCn1c(N)c(N(CCOC)C(=O)CCCc2nc3ccccc3c(=O)[nH]2)c(=O)[nH]c1=O`, the “hERG current change (%, negative = inhibition) at 1uM” value stood at 10.7%.
For `O=C(CCC(=O)c1cccs1)OCc1nc2ccccc2s1` the value was 12.6%.
Next, `C[C@H]1CN=C(Nc2ccccc2)N1CC1CCCCC1`: 8.66%; `O=C1CC(=O)N(c2cccc(F)c2)N1`: 11.8%; `CN1CCN(C(=O)c2cc(-c3cccc(Cl)c3)on2)CC1`: 5.71%.
Next, `Cc1ccc(-c2nc(C3CCCN(S(=O)(=O)c4ccc(C)cc4)C3)no2)cc1` (stereo not drawn): 12.4%; `CCN(CC(=O)Nc1ccccc1C(F)(F)F)C(=O)CN1C(=O)NC2(CCCCC2)C1=O`: 9.72%.
On to `COc1ccc(NS(=O)(=O)c2ccc(NC(=O)Cc3cccs3)cc2)cc1`, for which the “hERG current change (%, negative = inhibition) at 1uM” value is listed as 11.8%.
Next, `O=C(COC(=O)/C=C/c1cccc(Br)c1)NCCC1=CCCCC1`: 22%; `O=C(NCc1cccnc1)/C(=C/c1ccc(-c2ccc(Cl)cc2)o1)S(=O)(=O)c1ccccc1`: 7.41%.
Regarding `Cc1ccccc1-n1nc2c(c1NC(=O)c1c(-c3ccccc3Cl)noc1C)CSC2`, the “hERG current change (%, negative = inhibition) at 1uM” value amounted to 7.29%.
For `CCOC(=O)C1=C(C)OC(N)=C(C#N)C1c1cc(F)ccc1F` (stereo not drawn) the value was 5.75%.
For `CCCCOC(=O)c1sc2nc(C)cc(C)c2c1N` the value was 3.42%.
As to `Cc1ccc(-c2cc(C(=O)N(C)CC(=O)Nc3ccccc3Br)c3ccccc3n2)o1`, the “hERG current change (%, negative = inhibition) at 1uM” value was found to be 13.6%.
Regarding `Cc1ccccc1NC(=O)CN1CCN(C)CC1.O=C(O)C(=O)O`, the “hERG current change (%, negative = inhibition) at 1uM” value was -1.46%.
